Measurements published in PubChem BioAssay AID588579 (National Center for Advancing Translational Sciences (NCATS), 2011).
In all, about 400,000 compounds went through this assay and about 2,200 (0.55%) were called active. The inconclusive results got no clear call from the source; some entries with a clear call stand among them for comparison. The call rests on the fitted dose curve; in most records, active means well fitted inhibition curve with a large enough effect; inconclusive means small, poorly fitted or top-dose-only effect, or another doubt; inactive means no such curve, though single readings can be large or run the other way. A potency beside an inconclusive call is a rough fit, not a confirmed value.

Biological target: DNA polymerase kappa (Homo sapiens) (UniProt Q9UBT6)
UniProt Q9UBT6, sequence (Q9UBT6 whole entry, looked up): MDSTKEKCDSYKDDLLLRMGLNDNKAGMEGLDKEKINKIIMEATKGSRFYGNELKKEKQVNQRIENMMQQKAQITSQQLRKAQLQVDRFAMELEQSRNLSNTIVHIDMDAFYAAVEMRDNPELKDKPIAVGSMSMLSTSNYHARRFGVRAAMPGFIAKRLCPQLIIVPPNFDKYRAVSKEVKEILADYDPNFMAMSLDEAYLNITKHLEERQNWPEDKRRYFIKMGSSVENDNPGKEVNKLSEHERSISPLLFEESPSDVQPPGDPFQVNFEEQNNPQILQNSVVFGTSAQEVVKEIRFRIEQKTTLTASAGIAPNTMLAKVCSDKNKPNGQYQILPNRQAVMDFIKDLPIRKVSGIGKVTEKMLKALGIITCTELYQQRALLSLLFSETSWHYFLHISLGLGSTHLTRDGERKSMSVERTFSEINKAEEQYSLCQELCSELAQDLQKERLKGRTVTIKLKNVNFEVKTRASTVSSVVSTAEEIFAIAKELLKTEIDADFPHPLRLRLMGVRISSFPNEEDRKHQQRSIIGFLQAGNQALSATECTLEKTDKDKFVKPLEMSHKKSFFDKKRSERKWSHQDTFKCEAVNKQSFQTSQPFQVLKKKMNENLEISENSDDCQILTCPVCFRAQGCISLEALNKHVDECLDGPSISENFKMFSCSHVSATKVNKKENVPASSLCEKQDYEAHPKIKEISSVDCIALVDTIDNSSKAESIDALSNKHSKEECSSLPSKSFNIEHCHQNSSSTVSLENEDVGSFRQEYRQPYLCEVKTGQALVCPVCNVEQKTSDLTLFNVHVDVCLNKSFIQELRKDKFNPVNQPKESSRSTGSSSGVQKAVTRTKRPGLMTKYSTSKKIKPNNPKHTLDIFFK
Assay: qHTS for Inhibitors of Polymerase Kappa
Conditions: purified Pol kappa, fluorescent DNA synthesis assay, 10 min; series mostly up to 107 µM
Outline: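 First, compounds were pin-transferred onto 10 nM Pol kappa. After 15 min at room temperature, substrate was added to 50 nM final. Fluorescence was then measured kinetically at 0 and 10 min.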
Potency means the concentration at half of the fitted maximal effect; tags describe the fitted curve by direction and shape.

Potency, active:
C=CCn1c(SCC(=O)c2ccc(O)c(O)c2)nnc1-c1cccnc1 28.2 µM
N=C1/C(=C\c2coc3ccccc3c2=O)C(=O)N=C2SC(c3ccncc3)=NN12 7.94 µM
O=C(O)c1ccccc1NS(=O)(=O)c1ccc(N/N=C/c2cccc(O)c2O)c([N+](=O)[O-])c1 28.2 µM
O=C1/C(=C/C=C/c2ccco2)SC(=S)N1NS(=O)(=O)c1ccccc1 4.47 µM

Potency, inactive:
Cc1cc(=O)oc2ccc(OCC(=O)NCc3ccco3)cc12
CCOc1ccc(C2C(C(=O)c3ccco3)=C(O)C(=O)N2CCN2CCOCC2)cc1OCC (stereo not drawn)
CCOc1ccccc1CNC(=O)C1CCN(c2nn3cc(-c4ccc(F)cc4)nc3s2)CC1
COc1ccc(CNC(=O)COC(=O)c2ccccc2C(=O)c2ccccc2)cc1
CCCCCC(=O)Nc1cccc(C2=NOC3(C2)C[C@H](C(N)=O)N(C(=O)c2ccccc2)C3)c1 (stereo partly drawn)
O=[N+]([O-])c1c(Nc2ccc(O)cc2)cc(Cl)c2nonc12
COc1ccccc1Oc1c(C)oc2cc(OC(=O)c3ccco3)ccc2c1=O
O=C(CCS(=O)(=O)c1cccs1)Nc1ccc(C(=O)Nc2ccccc2F)cc1
O=[N+]([O-])c1ccc(N(CC(O)CN2CCCCC2)S(=O)(=O)c2ccccc2)cc1 (stereo not drawn)
O=C(Nc1sc2c(c1C(=O)NCc1ccco1)CCCC2)c1ccc2c(c1)OCO2
CCOC(=O)C1CCCN(C2CCN(Cc3nc(Cc4ccccc4)no3)CC2)C1 (stereo not drawn)
CN(C)S(=O)(=O)c1cccc(NC(=S)NNC(=O)c2cc3ccccc3cc2O)c1
CC(=O)N1CCN(C(=O)c2ccc(S(=O)(=O)Nc3ccccc3F)cc2)CC1
Cc1ccc(/C=C/c2onc(C)c2S(=O)(=O)N2CCC(C(=O)N3CCC(N(C)C(C)C)CC3)CC2)cc1
O=C(Nc1cc2c(cc1[N+](=O)[O-])OCCO2)c1cccnc1
COc1ccc(NC(=O)NNC(=O)c2cc3ccccc3cc2O)cc1
Cc1ccc(C)c(CN2CCCN(Cc3ccc(F)cc3)S2(=O)=O)c1

Potency, inconclusive:
O=C(CCCSc1ccccc1)Nc1nc(-c2ccco2)c(-c2ccco2)s1 89.1 µM [inhibitor, single point]
COC(=O)c1ccc(-c2nc3cc(NC(C)=O)ccc3o2)cc1 89.1 µM [inhibitor, single point]
Cc1oc(/N=C/c2cccc3ccccc23)c(C#N)c1C 50.1 µM [inhibitor, partial curve, poor fit]
COc1ccc(Cc2nnc(SCC(=O)c3ccc4c(c3)NC(=O)CO4)o2)cc1 89.1 µM [inhibitor, single point]
Cc1c(-c2ccc(O)cc2)nn(-c2ccc(O)cc2)c1-c1ccc(OCCN2CCCCC2)cc1 1.26 µM [inhibitor, partial curve, poor fit]
COC/C=C/C1=CC2=CC(=O)C(C)(OC(=O)c3cnc4ccccc4n3)C(=O)C2=CN1CC(C)C (stereo not drawn) 79.4 µM [inhibitor, partial curve, poor fit]
CC(C)(C)c1ccc(-c2nc(SCCCOc3ccccc3)n3[nH]c(=O)cc3n2)cc1 100 µM [inhibitor, single point]
Cc1ccccc1NC(=O)CSc1nc2c(c(=O)n(C)c(=O)n2C)n1Cc1ccccc1F 89.1 µM [inhibitor, partial curve, poor fit]
CC(C)(C)c1ccc(S(=O)(=O)N2CCN(Cc3noc(CCC(=O)N4CCCCC4)n3)CC2)cc1 89.1 µM [inhibitor, partial curve, poor fit]
Cc1cc(C)cc(NC(=O)Cn2nnc(C(=O)NCc3ccc4c(c3)OCO4)c2N)c1 79.4 µM [inhibitor, partial curve, poor fit]
O=[N+]([O-])c1ccc(Cl)c2c1C1C=CCC1C(c1ccccn1)N2 (stereo not drawn) 89.1 µM [inhibitor, single point]
Cc1ccc(C)c(NC(=O)CN2C(=O)CCc3ccccc32)c1 100 µM [inhibitor, single point]
O=[N+]([O-])c1cc(/C=N/n2c(-c3cccnc3)n[nH]c2=S)ccc1Cl 44.7 µM [inhibitor, partial curve, poor fit]
CCn1c(COc2cccc(C)c2)nnc1SCC(=O)CC(=O)Nc1ccccc1OC 100 µM [inhibitor, single point]
COc1ccc(CNC(=O)CC(C)S(=O)(=O)c2ccc3c(c2)NC(=O)CO3)cc1 (stereo not drawn) 100 µM [inhibitor, partial curve, poor fit]
O=c1c2cc3c(cc2n(Cc2ccc(Cl)cc2)c(=O)n1Cc1nc(-c2ccccc2)no1)OCO3 89.1 µM [inhibitor, partial curve, poor fit]
COC(=O)CCC(=O)OC1(C)C(=O)C=C2C=C3CCCN3C=C2C1=O (stereo not drawn) 56.2 µM [inhibitor, partial curve, poor fit]
O=C(O)Cc1ccc(N=Nc2c(O)c(C(=O)O)cc3ccccc23)cc1 31.6 µM [inhibitor, full curve, poor fit]
CCc1ccc(N=C2NC(=O)/C(=C/c3cc(Br)c(OCC(=O)O)c(OC)c3)S2)cc1 100 µM [inhibitor, single point]
COc1ccc(C)cc1NC(=O)CSc1ccc(-c2ccco2)nn1 89.1 µM [inhibitor, single point]
O=C(COc1ccccc1)NCCSCc1ccco1 89.1 µM [inhibitor, single point]
O=C(Nc1ccc(O)c2c(=O)cc(-c3ccccc3Cl)oc12)c1ccc(Br)cc1 44.7 µM [inhibitor, partial curve, poor fit]
